About 5,300 (4.4%) of roughly 120,000 compounds were called active. This list was built around the results that the source calls inconclusive (neither active nor inactive); the mix of calls is not that of the screen. Calls come from the whole dose curve; as a rule, active = well fitted inhibition curve with a large enough effect; inconclusive = small, poorly fitted or top-dose-only effect; inactive = no such curve, though single readings can be large or run the other way. Where the call is inconclusive, the potency comes from a doubtful curve fit.
Experiment: qHTS Primary assay for Inhibitors of Plasmodium falciparum Dd2 growth in vitro; note: nearly all actives have a fitted effect of over 65% in size;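 for activity, negative = inhibition: plate controls were DMSO vehicle for no effect and reference drug for full effect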
Details: P. falciparum Dd2 growth, SYBR Green, 72 h; activity, negative = inhibition: at 28.9 µM (top of the series) unless noted; series mostly up to 28.9 µM
Outline: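 Readout: SYBR Green fluorescence, 485 nm excitation, 535 nm emission, after ~16 h lysis at 37C. Before that, Dd2-infected red cells (2.5% hematocrit) grew 72 h with compound, 29 uM top final concentration.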
For `CCOc1ccc(NC(=O)c2c(NC(=O)c3ccccc3Br)sc3c2CCC(C)C3)cc1` (configuration not stated), the Potency was inconclusive: 7.94 µM [inhibitor, partial curve]. In the case of `O=C1[C@@H]2C[C@@H](CN2Cc2ccccn2)Oc2ccccc2N1Cc1ccccc1`, the Potency is reported as inconclusive: 14.1 µM [inhibitor, partial curve, poor fit]. For `FC(F)(F)CN1C2CCC1CN(c1nccc(Nc3ccccc3Cl)n1)C2`, the Potency was active: 8.91 µM. For `COc1cccc(N2C(=O)CSC23C(=O)N(CC(=O)NCc2ccc(C)cc2)c2ccccc23)c1` (configuration not stated), the Potency was inconclusive: 8.91 µM [inhibitor, single point]. With `O=C(C1CCN(c2nc3ccccc3[nH]2)CC1)N1CCN(c2cccc(Cl)c2)CC1` the Potency was inconclusive: 8.91 µM [inhibitor, partial curve, poor fit]. With `CCc1ccc2occ(CC(=O)Nc3sc4c(c3C(=O)OC)CCC4)c2c1` the Potency was inconclusive: 12.6 µM [inhibitor, single point]. For `COc1ccccc1-c1cc(C(=O)Nc2ccc3c(c2)C(=O)N2CCC[C@H]2C(=O)N3)[nH]n1`, the Potency was “inactive”. In the case of `COc1ccccc1CNC(=O)c1c(O)nc2cc(C)ccn2c1=O`, the Potency is reported as “inactive”. With `Cc1ccc(C2Cn3nnc(C(=O)N4CCN(C(=O)c5ccc(C(C)(C)C)cc5)CC4)c3CO2)cc1` (configuration not stated) the Potency was inconclusive: 2.24 µM [inhibitor, full curve]. For `Cc1noc(C)c1-c1cc2cc(C(C)C)oc2c(Nc2ccn(C)n2)n1`, the Potency was “inactive”. In the case of `COc1ccc(Cc2noc(-c3ccc(N(C)Cc4nonc4C)nc3)n2)cc1`, the Potency is reported as “inactive”. For `O=C(C1CCCC1)N1CCC(c2nc(-c3ccc4nc[nH]c4c3)no2)CC1`, the Potency was inconclusive: 12.6 µM [inhibitor, partial curve]. In the case of `Cn1c(SCc2ccc(F)cc2)nc2ccc(C(=O)NCc3ccccc3)cc21`, the Potency is reported as inconclusive: 7.94 µM [inhibitor, partial curve]. With `CCCCn1cc(S(=O)(=O)c2ccc(Cl)cc2)c(=O)c2cc(F)c(N3CCCCC3)cc21` the Potency was inconclusive: 1.78 µM [inhibitor, full curve, poor fit]. In the case of `CC(=O)N[C@H]1CCN(C(=O)C[C@@H]2[C@H](O)CCC3[C@](C)(CO)[C@H](OC(=O)Nc4cccc(C(F)(F)F)c4)CC[C@]32C)C1` (some centres not stated), the Potency is reported as inconclusive: 3.98 µM [inhibitor, partial curve, poor fit]. With `CC#CCn1cc2c3c(cccc31)[C@H](CC(C)C)N[C@H](C(=O)NCc1ccco1)C2` the activity, negative = inhibition was inconclusive: -33.7% [inhibitor] [at 44.1 µM]. For `COc1ccccc1-c1ccc(NCC2CCCN(C(=O)C3CC3)C2)nn1` (configuration not stated), the Potency was inconclusive: 11.2 µM [inhibitor, partial curve, poor fit]. For `CN(CCc1ccccn1)C(=O)COc1ccc(NC(=O)C2CC2)cn1`, the Potency was “inactive”. For `O=C(CCC[C@H]1NC[C@@H]2C[C@H]1CN(Cc1ccccc1)C2)N1CCN(Cc2ccccc2F)CC1`, the Potency was inconclusive: 20 µM [inhibitor, single point]. For `Cc1ccc(-c2nnc(C3CN(C(=O)c4ccccc4C)CC34CCOCC4)o2)cc1` (configuration not stated), the Potency was inconclusive: 14.1 µM [inhibitor, partial curve, poor fit]. For `O=C(NCC1CC1)c1ccc(Cn2ccn3nc4c(c3c2=O)CCCC4)cc1`, the Potency was inconclusive: 2 µM [inhibitor, partial curve, poor fit]. With `Cc1ccc(C(=O)N2CCC(c3nn(Cc4ccccc4)c(=O)[nH]3)CC2)cc1` the Potency was “inactive”. For `CC(=O)c1cc(C(=O)N2CCCC(CCc3ccccc3C)C2)[nH]n1` (configuration not stated), the Potency was inconclusive: 17.8 µM [inhibitor, single point]. With `CN(Cc1ccccc1)Cc1cc(CC2(NCc3ccccc3F)COC2)no1` the Potency was inconclusive: 31.6 µM [inhibitor, partial curve, poor fit]. For `CC(C)(C)NC(=O)N1CCCC(c2nc(CCOc3ccc(F)cc3)no2)C1` (configuration not stated), the Potency was “inactive”. In the case of `CC(C)c1ccc(NC(=O)C2CCCN(S(=O)(=O)c3ccc4[nH]c(=O)ccc4c3)C2)cc1` (configuration not stated), the Potency is reported as inconclusive: 7.94 µM [inhibitor, partial curve, poor fit]. With `COc1cc(NC(=O)Cn2cnc3sc(C)c(S(=O)(=O)N4CCN(C)CC4)c3c2=O)cc(OC)c1OC` the Potency was “inactive”. In the case of `Cc1ccc(Nc2c(-c3ccc(N4CCOCC4)cc3)nc3ncccn23)cc1C`, the Potency is reported as inconclusive: 17.8 µM [inhibitor, single point]. In the case of `O=c1c2c(n(Cc3cccnc3)n1CCc1ccccc1)CN(CC1CC1)CC2`, the Potency is reported as inconclusive: 31.6 µM [inhibitor, single point]. For `COc1cccc(CNCCSc2nnnn2C)c1OCc1ccc(Cl)cc1`, the Potency was inconclusive: 0.224 µM [inhibitor, full curve]. In the case of `O=C1Nc2ccccc2C12CCN(CC1CCCCC1)C2` (configuration not stated), the Potency is reported as inconclusive: 22.4 µM [inhibitor, single point]. With `O=C(Nc1ccc(N2CCOCC2)cc1)C1CCN(c2cn[nH]c(=O)c2)C1` (configuration not stated) the Potency was inconclusive: 10 µM [inhibitor, partial curve, poor fit]. In the case of `COc1ccc(-c2ccc3ncc(Nc4cccc(F)c4)n3n2)cc1OC`, the Potency is reported as inconclusive: 5.01 µM [inhibitor, partial curve, poor fit]. For `COCc1cc(=O)n(CC(=O)Nc2ccc(Br)cc2)c(N2CCOCC2)n1`, the Potency was inconclusive: 17.8 µM [inhibitor, single point]. In the case of `Cc1ccc(NC(=O)CCn2ccn3nc4c(c3c2=O)CCCC4)c(F)c1`, the Potency is reported as inconclusive: 10 µM [inhibitor, single point]. For `COc1cccc(-n2nnnc2N2CCN(C(=O)Nc3ccc(C)c(F)c3)CC2)c1`, the Potency was inconclusive: 7.08 µM [inhibitor, partial curve, poor fit]. In the case of `COc1ccc(-n2ncc(C(=O)N3CCc4ccccc4C3)c2C2CCN(C(=O)OC(C)(C)C)CC2)cc1`, the Potency is reported as inconclusive: 20 µM [inhibitor, partial curve, poor fit]. For `O=C(c1ccco1)N1CCc2nn(Cc3ccccc3)c(=O)n2CC1`, the Potency was “inactive”. In the case of `CSc1ncccc1C(=O)NC1CCCN(CCCc2ccccc2)C1` (configuration not stated), the Potency is reported as inconclusive: 20 µM [inhibitor, single point]. In the case of `COc1cc2c(cc1OCc1ccccc1)NC(=O)C21CCN(CCC(C)C)CC1`, the Potency is reported as inconclusive: 2.51 µM [inhibitor, partial curve, poor fit]. With `Cc1cccc(CSc2nc3c(c(=O)[nH]2)C(c2cccc(O)c2)CC(=O)N3)c1` (configuration not stated) the Potency was inconclusive: 7.94 µM [inhibitor, partial curve, poor fit]. In the case of `COc1cccc(Nc2cc3[nH]ccc3c(C(=O)NCc3c(C)cc(C)[nH]c3=O)n2)c1`, the Potency is reported as active: 11.2 µM. With `Cc1cc(C)c(NC(=O)Cn2nc3n(c2=O)CCCCC3)c(C)c1` the Potency was “inactive”. For `CC(C)C1=NOC2(CCN([S+](=O)([O-])c3ccccc3)C2)C1` (configuration not stated), the Potency was “inactive”. In the case of `CS(=O)(=O)N1CCC(OC2CCN(C(=O)NCCc3ccccc3)CC2)CC1`, the Potency is reported as “inactive”. For `COc1ccc(CCNC(=O)C2CCCN(c3nc4c(C)cc(C)cc4s3)C2)cc1OC` (configuration not stated), the Potency was inconclusive: 11.2 µM [inhibitor, partial curve, poor fit]. For `COCCCNC(=O)c1ccc2c(=O)n(Cc3ccc(OC)cc3)c(=O)[nH]c2c1`, the Potency was “inactive”. In the case of `C[S+](=O)([O-])N1Cc2ccccc2CC2(CCCCN2CC2CCOCC2)C1` (configuration not stated), the Potency is reported as inconclusive: 17.8 µM [inhibitor, single point]. For `CCOc1cc(-c2noc(-c3nnn4c3COC(c3ccc(F)cc3)C4)n2)ccc1OC` (configuration not stated), the Potency was inconclusive: 3.16 µM [inhibitor, single point]. For `Cc1cc(C)n(CC(=O)N2C[C@@H](CO)[C@H](c3ccncc3)C2)n1`, the Potency was “inactive”. For `COc1ccc(Br)cc1C1Sc2ccccc2NC2=C1C(=O)c1ccccc12` (configuration not stated), the Potency was inconclusive: 12.6 µM [inhibitor, single point]. With `O=C(CCC[C@@H]1[C@H]2CCCN3CCC[C@@H](CN1Cc1cccnc1)[C@@H]23)Nc1cccnc1` the Potency was “inactive”. In the case of `O=C(Nc1ccccc1)c1ccc(Br)c(S(=O)(=O)N2CCCCC2)c1`, the Potency is reported as inconclusive: 11.2 µM [inhibitor, single point]. For `Cc1cc(Nc2cccc(C(F)(F)F)c2)nc2ccc(NC(=O)c3ccc(=O)[nH]c3)cc12`, the Potency was active: 3.98 µM. With `CN(Cc1ccccc1)c1ncnc2onc(-c3ccc(F)cc3)c12` the Potency was inconclusive: 10 µM [inhibitor, single point]. For `O=C(N1CCCCC1)N1CCCC(c2nnc3n2CCNC3)C1` (configuration not stated), the Potency was “inactive”. With `COc1ccccc1NC(=O)C(Cc1ccccc1)NS(=O)(=O)c1ccc2c(c1)c(=O)n(C)c(=O)n2C` (configuration not stated) the Potency was inconclusive: 10 µM [inhibitor, partial curve]. In the case of `CCOc1ccc(-n2c(=O)c3c4c(sc3n(CC(=O)Nc3cccc(C(F)(F)F)c3)c2=O)CCCCC4)cc1`, the Potency is reported as inconclusive: 10 µM [inhibitor, single point]. In the case of `Cc1oc(C(O)c2ccccc2)nc1C(=O)Nc1ccc2[nH]ccc2c1` (configuration not stated), the Potency is reported as inconclusive: 28.2 µM [inhibitor, single point]. With `Cc1cc(C)c(NC(=O)C2CCN(c3nnc(C)c4c(C)n(-c5ccccc5)nc34)CC2)c(C)c1` the Potency was inconclusive: 17.8 µM [inhibitor, partial curve, poor fit]. With `COc1ccccc1NC(=O)C1=C(C)Nc2nc(SCc3ccccc3C)nn2C1CC(C)C` (configuration not stated) the Potency was “inactive”. In the case of `CCN1c2cc(C(=O)Nc3ccc(OC)cc3C)ccc2C(=O)N2CCCCCC21` (configuration not stated), the Potency is reported as inconclusive: 8.91 µM [inhibitor, partial curve, poor fit].

From PubChem BioAssay AID1347417 (National Center for Advancing Translational Sciences (NCATS), 2020)
Potency is the fitted concentration of half-maximal effect; tags give direction and shape of the fitted curve.
